In general, % Inhibition refers to the relative decrease from the control value, in per cent.

The campaign covered roughly 150,000 compounds. About 540 (0.36%) showed an effect of 50% or more. The list shows a part of the results.

The values that follow come from ChEMBL document CHEMBL4888484, “Replenishing the malaria drug discovery pipeline: Screening and hit evaluation of the MMV Hit Generation Library 1 (HGL1) against asexual blood stage Plasmodium falciparum ,using a nano luciferase reporter read-out” (2022).

This assay deals with Plasmodium falciparum. As to the kind of experiment: Primary screen in NF54 nanoGlo assay, in single point, at 2uM, 72h; a lower Z score goes with more inhibition. The assay is classed as functional, Erythrocyte. Particulars: timepoint 72 hour.
Regarding `CC1CC(NC(=O)N[C@@H]2CCCc3c(F)cc(F)cc32)c2nccn21` (some centres undefined), the “% Inhibition” value was -8% and the Z score is 1.42.
The like results for `COc1ccc(Cl)cc1-c1cccc(-n2cncc2C(=O)NC2CC(C)CC(C)(C)C2)c1` (centres undefined) were, in that order, 5% and -0.43.
On to `COc1cc(NC(=O)Cc2ccn[nH]2)cc(OC)c1Br`, for which the “% Inhibition” value is recorded as -11% and the Z score stood at 1.82.
With `COCc1noc(-c2cccc(OCC(F)F)n2)n1`, the “% Inhibition” value is -6% and the Z score was determined as 0.51.
The like results for `Cc1ccc(NC(=O)N[C@@H](CC(=O)c2ccc(Cl)cc2Cl)C(Cl)(Cl)Cl)cc1` were, in that order, 6% and -0.74.
The corresponding values for `CCN(CC)S(=O)(=O)c1ccc2c(c1)cc(C(=O)N1CCN(C3CCCCC3)CC1)n2C` are -7% and 1.04.
As to `C[C@H]1CCOCCN1C(=O)c1ccc(-c2cn[nH]c2)cn1`, the “% Inhibition” value is listed as -6% and the Z score came to 1.01.
The like results for `CCc1nc2cc(CNC(=O)C3CCOCC3)ccc2n1C1CC1` were, in that order, 1% and -0.15.
The corresponding values for `COc1ccc(Cl)c(NC(=O)[C@@H]2CC(=O)Nc3c(-c4ccccc4OC)cnn32)c1` are -8% and 1.
With `CN(C)[C@H]1CCN(C(=O)c2cccc(-c3ccc4cc[nH]c4c3)c2)C[C@@H]1O`, the “% Inhibition” value came to 16% and the Z score was -2.06.
For `O=C(COc1ccc2ccccc2c1)Nc1ccc(Nc2ccccc2)cc1`, the “% Inhibition” value stood at 7% and the Z score is reported as -1.26.
For `COCc1cc(CNC(=O)[C@H]2CCc3ccccc3C2)n[nH]1`, the “% Inhibition” value was -10% and the Z score was found to be 1.08.
The corresponding values for `Cc1nnc(CNC(=O)c2cc(=O)[nH]c3cc(F)ccc23)o1` are -7% and 0.92.
The like results for `CCS(=O)(=O)N1C[C@@H]2CN(C(=O)c3ccccc3)C[C@]2(C(=O)N(C)C)C1` were, in that order, -2% and 0.46.
As for `Cn1nccc1C(=O)N1CCN(Cc2cccc(C#N)c2)C[C@H](O)C1`, the “% Inhibition” value is -9% and the Z score turned out to be 1.56.
Turning to `FC(F)COc1ccc(-c2nc([C@H]3CCOC3)no2)cn1`, the “% Inhibition” value was -4% and the Z score is listed as 0.53.
Turning to `Cc1cnc(C(NC(C)c2nnnn2C2CC2)C2CC2)s1` (centres undefined), the “% Inhibition” value was -15% and the Z score worked out at 2.41.
Regarding `O=C(CCNC(=O)N[C@@H]1C=CCCC1)Nc1ccccc1`, the “% Inhibition” value is given as -8% and the Z score amounted to 0.98.
The like results for `CCNC(=O)N[C@@H]1C=C[C@@H](c2c(C)nn(-c3ccc(C(C)(C)C)cc3)c2C)C1` were, in that order, -4% and 0.61.
The like results for `COc1c(F)c(F)cc(C(=O)NCc2cncc(-c3ccnn3C)c2)c1F` were, in that order, 12% and -1.52.
The corresponding values for `CCC[C@H](NC(C)=O)C(=O)NCCc1nc2ccccc2o1` are -13% and 2.2.
As for `Cc1ccc(NC[C@H]2CCN(Cc3nc(C4CC4)no3)C2)nc1`, the “% Inhibition” value came out at 2% and the Z score is -0.19.
For `COCCN1CCCCC[C@H](O)c2cc(C(=O)N3CCc4ccccc43)ccc21`, the “% Inhibition” value is given as -19% and the Z score is on record as 2.17.
The corresponding values for `CN(C[C@H]1COCCO1)C(=O)NCc1nc(C(C)(C)C)no1` are -8% and 1.6.
On to `Cc1ccc(-c2nc3c([nH]2)CCNC3)c2cccnc12`, for which the “% Inhibition” value was 4% and the Z score is -0.81.
The corresponding values for `c1ccc2[nH]c(-c3nc4ccccc4o3)nc2c1` are -4% and 0.56.
For `COc1ccccc1N1CCN(C(=O)Cn2ncn3nc(-c4cccc5ccccc45)cc3c2=O)CC1`, the “% Inhibition” value is -6% and the Z score was determined as 0.72.
The like results for `CC1=CCCC(C)C1CNC(C)CCS(C)(=O)=O` (centres undefined) were, in that order, -6% and 0.63.
The like results for `CC[C@H](Oc1ccccc1C)c1nnc(C2CCC2)o1` were, in that order, 9% and -1.68.
The like results for `CCN(CC(=O)Nc1ccc(NC(C)=O)cc1)C(=O)c1ccoc1` were, in that order, 1% and -0.28.
For `CCOc1ncccc1C(=O)N1CCO[C@H](c2ccccc2)CC1`, the “% Inhibition” value is listed as -3% and the Z score was 0.56.
The like results for `C=CCN(Cc1ccc(F)cc1)C(=O)[C@@H]1COc2c(cccc2OC)C1` were, in that order, -8% and 1.43.
The corresponding values for `CCC[C@H](C)c1nc(N2CCCN(C(=O)Cc3ccccc3)CC2)c2c(C)nn(-c3ccc(F)cc3)c2n1` are -2% and 0.45.
The like results for `CCC(CNC(=O)N1CCS(=O)(=O)CC(C)C1)Oc1ccccc1C` (centres undefined) were, in that order, 8% and -1.45.
In the case of `Cc1c([C@@H](NC(=O)Cn2cnnn2)C(C)C)oc2ccccc12`, the “% Inhibition” value is listed as -3% and the Z score was 0.53.
The like results for `CCc1ccc(CN2CCN(Cc3cccc(Oc4ccccc4)c3)CC2)cc1` were, in that order, 31% and -0.25.
The corresponding values for `COCCOc1nc(-c2ccccc2C)n(-c2ccc(NC(=O)c3cccs3)cc2)n1` are -19% and 3.27.
The like results for `CCn1ccc(C(=O)N2CC[C@H](c3nc(C)no3)[C@H](NC(=O)COC)C2)n1` were, in that order, -13% and 1.68.
On to `Nc1cc(C(=O)N2CCOCC2)ccc1N1CCCCC1`, for which the “% Inhibition” value is reported as -2% and the Z score is 0.19.
In the case of `Cc1cc(C(=O)NCCc2csc(C)n2)no1`, the “% Inhibition” value is given as -8% and the Z score was found to be 1.54.
As for `CCc1nc(NCCOC)c2cc(Cl)cc(Cl)c2n1`, the “% Inhibition” value is on record as -7% and the Z score was 0.68.
As for `CCOCCCNC(=O)c1snc2c(=O)n(Cc3ccccc3)cnc12`, the “% Inhibition” value was -13% and the Z score came out at 1.96.
